# From PubChem BioAssay AID894 (National Center for Advancing Translational Sciences (NCATS), 2007)
# Out of some 150,000 compounds screened, about 6,500 (4.3%) were called active. The shares of active, inactive and inconclusive entries below differ from those in the screen. The call rests on the fitted dose curve; in most records, active means well fitted inhibition curve with a large enough effect (not every such curve was filed as active); inconclusive means small, poorly fitted or top-dose-only effect, or another doubt; inactive means no such curve, though single readings can be large or run the other way. Potencies of inconclusive entries are left out as doubtful fits.
# Target: 15-hydroxyprostaglandin dehydrogenase [NAD(+)] (Homo sapiens) (UniProt P15428)
# Sequence of UniProt P15428 (P15428 whole entry, looked up): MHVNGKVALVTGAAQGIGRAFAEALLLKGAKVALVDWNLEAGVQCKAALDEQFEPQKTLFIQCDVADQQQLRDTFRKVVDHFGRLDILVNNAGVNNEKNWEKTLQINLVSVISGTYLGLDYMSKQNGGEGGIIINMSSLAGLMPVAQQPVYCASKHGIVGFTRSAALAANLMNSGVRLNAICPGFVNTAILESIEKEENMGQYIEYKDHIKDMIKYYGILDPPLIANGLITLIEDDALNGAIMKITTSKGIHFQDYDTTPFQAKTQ
# Experiment: qHTS Assay for Inhibitors of HPGD (15-Hydroxyprostaglandin Dehydrogenase)
# Conditions: purified HPGD, NADH fluorescence kinetic, PGE2 substrate; activity change, negative = inhibition: active compounds read low
# Summary of the method: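 20 nM HPGD preincubated 15 min at room temperature with compound in 50 mM Tris-HCl pH 8, 0.01% Tween 20. Started with 1 mM NAD+ and 30 uM prostaglandin E2; NADH fluorescence (360/450 nm) read 5 times over 30-s intervals, last minus first.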
# On the % scale 0 is the no-effect control and ±100 the full control effect; potency means the concentration at half of the fitted maximal effect; tags describe the fitted curve by direction and shape.
SMILES,"activity change, negative = inhibition",Potency
CCCCn1c(SCc2nc3ccccc3s2)nc2cc(S(N)(=O)=O)ccc21,inactive: -7.4%,–
CC1CCCCN1C(=O)CSc1nnc(-c2ccc(Cl)s2)o1 (stereo unspecified),–,"inconclusive [inhibitor, single point]"
Cc1nc2ccc(S(=O)(=O)NCC(=O)N3CCc4ccccc4C3)cc2s1,inactive: -8.77%,–
COc1ccc(C2C(C(=O)N3CCOCC3)=C(C)NC3=C2C(=O)CC(C)(C)C3)c(OC)c1 (stereo unspecified),–,"inconclusive [inhibitor, partial curve]"
CCCCN(CC)C(=O)c1ccc2c(c1)OCO2,–,active: 12.6 µM
COc1ccc(-c2cc(OC)c3c(C)oc(C)c3c(=O)c2)cc1OC,–,active: 28.2 µM
COC(=O)c1ccccc1NC(=O)COC(=O)c1ccccc1N=Nc1ccc(N(C)C)cc1,inactive: -15%,–
COc1ccccc1-c1ccc(=O)n(CC(=O)Nc2ccc(C(=O)N3CCCC3)cc2)n1,–,active: 14.1 µM
O=C(NC1CCCCC1)c1cc2nc(-c3ccco3)cc(C(F)(F)F)n2n1,–,"inconclusive [inhibitor, partial curve]"
CN(C)c1ccc(N=Cc2nc(-c3ccccc3)oc2O)cc1,inactive: -11.6%,–
Cn1c(=O)n(C)c2cc(/C=N/n3cnnc3)ccc21,–,"inconclusive [inhibitor, partial curve]"
Cc1c(Cc2ccc3c(c2)OCO3)sc(NC(=O)c2ccccc2)c1C(N)=O,–,"inconclusive [inhibitor, partial curve]"
CC(=O)Nc1cc2c(nc1C)nc(C)n2Cc1ccc(Br)cc1,–,"inconclusive [inhibitor, partial curve, poor fit]"
CCOC(=O)CC1C(=O)NCCN1S(=O)(=O)c1cc(Cl)c(Cl)cc1Cl (stereo unspecified),inactive: 1.54%,–
C=CCSc1nc(-c2ccc3c(c2)OCO3)cc(C(F)(F)F)c1C#N,–,"inconclusive [inhibitor, partial curve]"
CS(=O)(=O)N(Cc1ccc(C(=O)NCc2ccco2)cc1)c1ccccc1,–,active: 28.2 µM
O=C(/C=C/Nc1cccc(F)c1)c1ccco1,inactive: -25.5%,–
COc1ccc(/C=C2\CCCC(C(=O)C(F)(F)F)=C2O)cc1,inactive: -13.2%,–
CN(C)CCNS(=O)(=O)c1ccc(N2CCN(c3ccc(F)cc3)CC2)c([N+](=O)[O-])c1,inactive: -7.57%,–
Fc1ccc(-c2nnc(CSc3nnc(-c4cccs4)o3)o2)cc1,–,"inconclusive [inhibitor, partial curve, poor fit]"
CC(C)(C)c1cn(-c2ccc(Cl)cc2)c(=S)[nH]1,–,"inconclusive [inhibitor, partial curve]"
CC1CCN(c2c(NCC3CCC(C(=O)N4CCCC(C)C4)CC3)c(=O)c2=O)CC1 (stereo unspecified),–,active: 0.631 µM
CC1SC(c2cccc(Cl)c2)NC1=O (stereo unspecified),–,"inconclusive [inhibitor, single point]"

SMILES,"activity change, negative = inhibition",Potency
NC1=NC(S)C2N=CN=C2N1 (stereo unspecified),–,"inconclusive [inhibitor, partial curve]"
CC1CCN(S(=O)(=O)c2ccc(Cl)cc2Br)CC1,–,"inconclusive [inhibitor, single point]"
Cc1cccc(-n2ncc3c(NCCCN4CCCC4=O)ncnc32)c1,–,"inconclusive [inhibitor, partial curve]"
Cc1onc(-c2ccccc2Cl)c1C(=O)Nc1cccc(-c2nc3ncccn3c2C)c1,–,"inconclusive [inhibitor, partial curve]"
COc1cc2c(C#N)c(N3CCN(C)CC3)nc(N)c2c(N)n1,–,"inconclusive [inhibitor, partial curve]"
COc1cc(/C=C2\SC(=N)N(c3ccc4c(c3)OCO4)C2=O)cc(OC)c1O,–,active: 3.98 µM
Cc1nc(N2CCOCC2)c2nc(-c3ccccc3)n(CC(C)(C)CN(C)C)c2n1,–,"inconclusive [inhibitor, partial curve]"
CCCCNc1c2c3c(cccc3n(C)c1=O)C(=O)c1ccccc1-2,inactive: -1.66%,–
COc1ccc(N=c2oc3cc(O)ccc3cc2C(=O)NCC2CCCO2)cc1 (stereo unspecified),–,"inconclusive [inhibitor, partial curve]"
CCOC(=O)c1csc(NC(=O)c2ccc(S(=O)(=O)N(C)C)cc2)n1,–,"inconclusive [inhibitor, partial curve]"
Cc1cc(=O)oc2cc(OCC(=O)NCCCN3CCOCC3)ccc12,–,"inconclusive [inhibitor, partial curve]"
O=C(NC(=S)NC(=O)c1ccccc1F)c1ccccc1F,–,active: 12.6 µM
O=C(COC(=O)[C@@H]1CC(O)CN1S(=O)(=O)c1ccccc1[N+](=O)[O-])Nc1ccc2ccccc2c1 (stereo partly specified),inactive: -9.1%,–
O=C(CCN1CCN(CC(=O)Nc2ccccc2Cl)CC1)Nc1ccccc1F,inactive: -9.82%,–
CC(C)NC(=O)/C(=C/c1cn(-c2ccccc2)nc1-c1cccc([N+](=O)[O-])c1)NC(=O)c1ccccc1,inactive: -5.17%,–
COC(=O)c1ccc(CSc2n[nH]c(=S)s2)o1,–,"inconclusive [inhibitor, single point]"
CCOc1ccc(N(C)S(=O)(=O)c2ccc3[nH]cc(C(=O)NCC4CCCO4)c(=O)c3c2)cc1 (stereo unspecified),–,active: 14.1 µM
CCOC(=O)N/N=C(\C)c1ccc(C)c([N+](=O)[O-])c1,–,"inconclusive [inhibitor, partial curve]"
CN(C)CCOc1ncnc2c1oc1ccccc12,inactive: -0.666%,–
CCc1ccc(S(=O)(=O)N2CC(=O)Nc3ccccc32)cc1,inactive: -2.75%,–
CN(C)S(=O)(=O)N1CCN(CC(O)COc2ccc3cc(Br)ccc3c2)CC1 (stereo unspecified),inactive: -13.9%,–
O=C(N/N=C/c1cn(-c2ccccc2)nc1-c1cccs1)c1ccncc1,–,"inconclusive [inhibitor, partial curve]"
COc1ccccc1N1CCN(C(=O)CCn2c(=O)[nH]c3ccccc3c2=O)CC1,inactive: -5.93%,–
